Reference: publication PMC4336329 (PLoS ONE, 2015)
Among all 310,000 compounds or so, about 2,200 (0.71%) showed an effect of 50% or more. The effect is printed as a negative number. This is one part of the list. Where a SMILES comes first, the peptide text is derived from it. [ ]: non-standard residue; d: D form. Inp = O=C(O)C1CCNCC1

biological target: human ether-à-go-go-related gene (hERG) potassium channel (human, UniProt Q12809); assay: primary screen, population patch clamp on CHO cells stably expressing hERG
Sequence (Q12809 whole entry, looked up): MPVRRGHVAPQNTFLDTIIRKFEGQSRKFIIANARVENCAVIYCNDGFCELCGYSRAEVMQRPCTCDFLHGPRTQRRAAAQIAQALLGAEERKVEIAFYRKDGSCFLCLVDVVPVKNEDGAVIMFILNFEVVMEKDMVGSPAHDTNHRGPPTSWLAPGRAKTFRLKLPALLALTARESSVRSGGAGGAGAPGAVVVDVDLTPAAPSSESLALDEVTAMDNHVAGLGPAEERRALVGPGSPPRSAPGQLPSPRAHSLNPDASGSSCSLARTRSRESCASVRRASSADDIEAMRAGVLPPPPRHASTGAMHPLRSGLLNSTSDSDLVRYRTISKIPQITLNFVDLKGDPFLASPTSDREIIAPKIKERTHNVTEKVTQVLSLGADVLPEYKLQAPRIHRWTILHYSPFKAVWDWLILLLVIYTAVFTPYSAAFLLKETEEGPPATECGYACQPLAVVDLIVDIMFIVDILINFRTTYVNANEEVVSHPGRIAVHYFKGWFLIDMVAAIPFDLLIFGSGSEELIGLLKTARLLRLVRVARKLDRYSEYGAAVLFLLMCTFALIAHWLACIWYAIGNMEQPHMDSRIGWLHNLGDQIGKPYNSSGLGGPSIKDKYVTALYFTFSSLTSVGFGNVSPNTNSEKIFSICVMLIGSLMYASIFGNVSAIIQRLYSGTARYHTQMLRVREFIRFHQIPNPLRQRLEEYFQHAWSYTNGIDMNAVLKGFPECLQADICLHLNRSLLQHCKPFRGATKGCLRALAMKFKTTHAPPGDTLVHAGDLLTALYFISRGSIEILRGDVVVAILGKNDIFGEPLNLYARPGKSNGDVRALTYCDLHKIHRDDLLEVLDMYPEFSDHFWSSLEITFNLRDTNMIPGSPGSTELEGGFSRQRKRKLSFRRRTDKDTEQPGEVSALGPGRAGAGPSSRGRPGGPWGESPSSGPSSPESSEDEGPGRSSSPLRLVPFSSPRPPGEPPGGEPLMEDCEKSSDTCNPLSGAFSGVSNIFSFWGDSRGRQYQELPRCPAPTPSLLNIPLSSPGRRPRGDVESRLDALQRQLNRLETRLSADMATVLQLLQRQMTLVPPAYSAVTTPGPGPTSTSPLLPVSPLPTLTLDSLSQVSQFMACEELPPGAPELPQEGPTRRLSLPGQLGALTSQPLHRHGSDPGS

Structure (SMILES)	hERG current change (%, negative = inhibition) at 1uM [%]
C/C(=N\N=C1\NC(=O)C(CC(=O)Nc2ccc(C)c(Cl)c2)S1)C(C)(C)C (stereo not drawn)	11.5
CCN(CC)S(=O)(=O)c1cccc(NC(=O)COc2ccc(F)cc2Br)c1	6.99
CCc1ccc(C(C(=O)NC(C)(C)CC)N(Cc2ccco2)C(=O)Cn2nnc3ccccc32)cc1 (stereo not drawn)	13.5
Cc1ccc(CS(=O)(=O)CCC(=O)NCCC(C)C)cc1	6.06
COc1ccc(-c2nnc(SC)o2)c(OC)c1	16.3
O=C1NC(=O)C(=C2CCCCCC2)S1	5.85
O=C1CS/C(=N/N=C/c2ccccc2)N1Cc1ccco1	12.1
CC(C)c1ccc(NC(=O)COC(=O)c2c[nH]c(=O)[nH]c2=O)cc1	10.1
Clc1ccc(CCNc2ncnc3c2nnn3Cc2ccccc2)cc1	11.9
Cc1cccc(C)c1N1CCN(c2c(C)cccc2C)CC1	16.7
COc1ccccc1CNC(=O)C(C)NS(=O)(=O)c1ccc(Br)cc1 (stereo not drawn)	11.6
O=c1cc(N2CCCCC2)c(-c2ccccc2)nn1Cc1ccc(F)cc1	3.63
CCOC(=O)C1=C(c2ccccc2)N=c2s/c(=C\c3ccco3)c(=O)n2C1c1cccs1 (stereo not drawn)	25.7
O=C(NCCN=C1NS(=O)(=O)c2ccccc21)c1ccco1	5.21
Cc1ccccc1C(=O)NNC(=S)NC(=O)c1cccnc1	13.6
Cc1cc(C)c2c(C)[nH]nc2n1	17.5
CN1CCCC1CCNc1ccc2oc3ccccc3c(=O)c2c1 (stereo not drawn)	8.43
CCCC(C(=O)NC1CCCCC1)N(Cc1ccco1)C(=O)CNS(=O)(=O)c1ccccc1 (stereo not drawn)	-1.69
C/C(=N\NC(=O)c1ccc(F)cc1)c1cccc(NC(=O)c2ccco2)c1	4.72

Structure (SMILES)	hERG current change (%, negative = inhibition) at 1uM [%]
CC1=C(C(N)=O)C(c2ccccc2)n2nc(-c3ccncc3)nc2N1 (stereo not drawn)	11.1
CCC12CC3CC(C1)CC(C(=O)O)(C3)C2	9.41
N[C@@H](Cc1ccccc1)C(=O)N1CCC(C(=O)NCC(=O)NCC(=O)O)CC1 (H-F[Inp]GG-OH)	16.4
Cc1ccnc(N2CCN(c3cc(C)c(C#N)c4nc5ccccc5n34)CC2)c1	-0.102
COC(=O)Cc1ccc(NC(=S)NNC(=O)C2CC2)cc1	12.6
Cc1cc(=O)c2ccccc2s1	3.09
Cc1nn(-c2ccccc2)c(N2CCCCC2)c1/C=N/O	4.74
O=C(CSc1n[nH]c(=O)[nH]c1=O)N/N=C/C=C/c1ccccc1	16.1
O=C(CN1C(=O)S/C(=C\c2ccccn2)C1=O)Nc1ccccc1	13.9
COc1cccc(N=Cc2c[nH][nH]c2=O)c1	13
Cc1cccc(OCCC(=O)NNC(=O)c2ccoc2C)c1	6.36
CN1CCN(c2cc(N3CCN(C(=O)c4ccco4)CC3)c3c4c(onc24)-c2ccccc2C3=O)CC1	31.3
CCc1nccn1Cc1cc(C=O)ccc1OC.Cl	5.59
CC(=O)c1ccc(OC(C)C(=O)OCC(=O)NCCc2ccccc2)cc1 (stereo not drawn)	6.99
CN(C)CCN(Cc1ccccc1)S(=O)(=O)c1ccc2c(c1)n(C)c(=O)c(=O)n2C	10.6
Cn1c(=O)c2c(SCC(=O)Nc3nccs3)nc(C3CC3)nc2n(C)c1=O	12.1
CCc1ccccc1NC(=O)NC1CCCCCCC1	17.7
O=C(c1ccc(Cl)cc1)C1CCCN(C(=O)c2csnn2)C1 (stereo not drawn)	9.03
COc1cccc(CNC(=O)CCC2CCCN(C(=O)c3cccc4c(C)c(C)[nH]c34)C2)c1 (stereo not drawn)	11.6

Structure (SMILES)	hERG current change (%, negative = inhibition) at 1uM [%]
CSCC[C@H](NC(=O)c1ccc2ccccc2c1)C(=O)N1CCC2(CC1)NCCc1[nH]cnc12	5.8
CCCSCCCNC(=O)Cn1cc2c(n1)CCC(C)C2 (stereo not drawn)	-2.86
CC(C)(C)c1ccc(-c2nc3[nH]c(=O)cc(NC(=O)c4ccco4)n3n2)cc1	15.3
C/C(CC(=O)Nc1cccc(Cl)c1Cl)=N\NC(=O)c1ccccc1Br	8.27
O=C(NCCc1cccc(Cl)c1)c1cc([N+](=O)[O-])ccc1Cl	-5.97
COc1ccc(/C=N/n2cnnc2SCc2ccccc2)cc1	4.97
CCN1CCN(c2nc3c(C)cccn3c(=O)c2/C=C(\C#N)C(=O)NC)CC1	6.48
COCC(C)n1c(C)cc(C(=O)COc2ccc(S(=O)(=O)N3CCOCC3)cc2Cl)c1C (stereo not drawn)	4.48
COc1ccc(-c2c(NC(=O)c3ccco3)oc3ccc(Cl)cc3c2=O)cc1	10.6
Cc1ccc2c(Cl)c(C(=O)NCC3CCCO3)sc2c1 (stereo not drawn)	0.795
CCCCn1c(N)c(N(CC(C)C)C(=O)c2ccc(N3C(=O)c4ccccc4C3=O)cc2)c(=O)[nH]c1=O	8.76
COCCN1C(=O)N[C@@H](c2cccc(F)c2)C(C(=O)OC)=C1C	-10.7
O=C(O)c1sccc1Oc1ccc(NS(=O)(=O)c2ccccc2)cc1	17.2
CCOC(=O)/C=C1\NC2(CCCCC2)Cc2cc(OC)c(OC)cc21	4.21
Cc1ccc(N2CCN(C3=NC(=O)/C(=C\c4cn[nH]c4-c4ccccc4)S3)CC2)cc1	11.3
O=C1CCCN1CCCNC(=S)Nc1ccc(F)cc1	7.2
Cc1ccc(-n2c(C)nc3ccccc3c2=O)c(C)c1	10.1
C=CCn1c(SCC(=O)c2cc(C)n(CC3CCCO3)c2C)nnc1-c1ccccc1 (stereo not drawn)	8.27
CC(C)[C@H](NC(=O)c1ccccc1Cl)C(=O)OCc1cc([N+](=O)[O-])cc2c1OCOC2	-2.64
